Data as given in PubChem BioAssay AID1461 (National Center for Advancing Translational Sciences (NCATS), 2008).
Out of some 220,000 compounds screened, about 2,300 (1%) were called active. This list was built around the results that the source calls inconclusive (neither active nor inactive); the mix of calls is not that of the screen. Calls follow the shape of the dose curve; as a rule, active = well fitted inhibition curve with a large enough effect; inconclusive = small, poorly fitted or top-dose-only effect, or effect the other way; inactive = no such curve, though single readings can be large or run the other way. Potencies of inconclusive entries are left out as doubtful fits.

Biological target: Neuropeptide S receptor (Homo sapiens) (UniProt Q6W5P4)
Experiment: qHTS Assay for Antagonists of the Neuropeptide S Receptor: cAMP Signal Transduction; also: nearly all actives have a fitted effect of over 50% in size
Settings: CHO-NPSR cells, cAMP TR-FRET, antagonist mode; activity change, negative = inhibition: at 38.3 µM (top of the series) unless noted
% is scaled to controls: 0 for no effect and ±100 for the full control effect; potency is read from the fitted curve at half-maximal effect; tags tell the direction and shape of the fitted curve.

Sequence of UniProt Q6W5P4 (Q6W5P4 whole entry, looked up): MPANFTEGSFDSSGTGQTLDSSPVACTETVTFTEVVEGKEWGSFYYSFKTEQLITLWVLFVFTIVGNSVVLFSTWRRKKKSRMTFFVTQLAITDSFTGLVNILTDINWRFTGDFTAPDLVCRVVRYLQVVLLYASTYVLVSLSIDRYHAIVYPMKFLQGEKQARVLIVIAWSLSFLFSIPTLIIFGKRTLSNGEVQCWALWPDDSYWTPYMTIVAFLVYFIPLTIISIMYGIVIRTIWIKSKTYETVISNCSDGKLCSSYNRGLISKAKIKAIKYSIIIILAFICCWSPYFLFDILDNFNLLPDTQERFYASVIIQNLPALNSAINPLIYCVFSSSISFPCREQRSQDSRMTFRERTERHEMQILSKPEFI

For CCC(C)NC(=O)c1c(N)n(/N=C/c2cccnc2)c2nc3ccccc3nc12 (stereo unspecified), which Potency is on record?
The Potency was inconclusive [inhibitor, single point].

For COc1ccc(OC)c(NS(=O)(=O)c2ccc(SC)cc2)c1, which “activity change, negative = inhibition” value is on record?
The value was inactive: -4.65% [at 46.1 µM].

Which Potency does the source give for O=C(CN1C(=O)NC(Cc2ccccc2)C1=O)Nc1ccc(F)cc1 (stereo unspecified) here?
Its Potency is inconclusive [inhibitor, single point].

For Cn1c(N2CCOCC2)c(/C=N/O)c2ccccc21, which “activity change, negative = inhibition” value is on record?
Its value is inactive: 5.44%.

With CCOC(=O)CC(=O)CSc1nc(-c2ccccc2)cc(-c2ccc(Cl)cc2)c1C#N as the compound, how does the Potency read?
The Potency was inconclusive [inhibitor, partial curve].

Which “activity change, negative = inhibition” value does the source give for O=[N+]([O-])c1cc2c(cc1/C=N/n1c(-c3ccccn3)n[nH]c1=S)OCO2 here?
Its value is inactive: -11.7%.

How did the “activity change, negative = inhibition” value turn out when Cc1cc(S(=O)(=O)Nc2ccc(N(C)C)cc2)c(C)s1 was run?
The value was inactive: -15.7% [at 46.1 µM].

With CCN(CC)c1ccc(NC2=C(Cl)C(=O)c3ccccc3C2=O)cc1 as the compound, how does the Potency read?
Its Potency is active: 12.6 µM.

Which Potency does the source give for COc1cccc(C(C(=O)NC2CCCCC2)N(C(=O)Cc2cccs2)c2ccc(-n3cnnn3)c(OC)c2)c1 (stereo unspecified) here?
Its Potency is inconclusive [inhibitor, partial curve].

With COc1ccc(NC(=S)N(CCCN2CCCC2)Cc2cccs2)cc1 as the compound, how does the “activity change, negative = inhibition” value read?
Its value is inactive: 20.3%.

With Cc1cc(C)c(O)c(-c2n[nH]c3c2C(c2cccc(O)c2)N(Cc2ccco2)C3=O)c1 (stereo unspecified) as the compound, how does the Potency read?
The Potency was inconclusive [activator, single point].

How did the Potency turn out when COc1ccc(C2/C=C\CN(C(=O)Nc3ccc(C(F)(F)F)cc3)CC(=O)N2Cc2ccc(F)cc2)cc1 (stereo unspecified) was run?
The Potency was inconclusive [inhibitor, single point].

C/C(N)=C(/C#N)C(=O)COC(=O)c1cc(-c2cccc(Br)c2)nc2ccccc12 was tested. Which Potency did it give?
The Potency was inconclusive [inhibitor, single point].

Which “activity change, negative = inhibition” value does the source give for COCCN(C(=O)C(=O)NC1CCCC1)C(C(=O)NC1CCCC1)c1ccccc1F (stereo unspecified) here?
Its value is inactive: -14.9%.

Which “activity change, negative = inhibition” value does the source give for CCc1cc2c(=O)c(-c3ccc4c(c3)OCCO4)coc2cc1OS(C)(=O)=O here?
Its value is inactive: -21%.

How did the “activity change, negative = inhibition” value turn out when CCCOc1ccc(/C=N/NC(=O)C(=O)Nc2ccccn2)cc1 was run?
Its value is inactive: 12%.

With C=CCn1c(=NC(=O)C2COc3ccccc3O2)sc2cccc(OC)c21 (stereo unspecified) as the compound, how does the Potency read?
Its Potency is inconclusive [activator, single point].

How did the “activity change, negative = inhibition” value turn out when Cc1cccc2nc(-c3ccco3)c(Nc3ccccc3)n12 was run?
The value was inactive: -34.1%.

For COc1ccccc1C(=O)Nc1sc2c(c1C(=O)NCc1ccco1)CCCC2, which Potency is on record?
Its Potency is inconclusive [inhibitor, single point].

Nc1c2c(nc3ccn(Cc4ccccc4)c(=O)c13)CCC2 was tested. Which “activity change, negative = inhibition” value did it give?
The value was inactive: -6.04% [at 46.1 µM].

How did the Potency turn out when Cc1ccccc1C(OCCN(C)C)c1ccccc1 (stereo unspecified) was run?
Its Potency is inconclusive [activator, full curve, poor fit].

For CCc1ccc2[nH]c(=O)c(C(c3nnnn3CC3CCCO3)N3CCCc4ccccc43)cc2c1 (stereo unspecified), which “activity change, negative = inhibition” value is on record?
Its value is inactive: -9.51% [at 46.1 µM].

For CCOc1ccc(C(C)=O)cc1CSc1nnc(-c2cccs2)n1CC1CCCO1 (stereo unspecified), which “activity change, negative = inhibition” value is on record?
Its value is inactive: -5.14% [at 46.1 µM].

How did the Potency turn out when Cc1ccc2c(CSc3nc4ccccc4c(=O)n3CCCO)cc(=O)oc2c1C was run?
The Potency was inconclusive [inhibitor, partial curve].

For O=C(/C=C/c1cccs1)Nc1scc(-c2ccccc2)c1C(=O)O, which “activity change, negative = inhibition” value is on record?
The value was inactive: -5.25%.

For CCOC(=O)N1CCN(Cc2cc(=O)oc3ccc4ccccc4c23)CC1, which Potency is on record?
The Potency was inconclusive [inhibitor, partial curve].

With Cc1ccc(NC(=O)c2sc(Cl)nc2-c2ccccc2)cc1C as the compound, how does the Potency read?
Its Potency is inconclusive [inhibitor, single point].

NCCNS(=O)(=O)c1cccc2c(Cl)cccc12 was tested. Which Potency did it give?
The Potency was inconclusive [activator, full curve].

COc1ccc(CNC(=O)C(c2ccc(C)o2)N(C(=O)c2csnn2)c2ccc(C(C)C)cc2)cc1 (stereo unspecified) was tested. Which Potency did it give?
The Potency was inconclusive [inhibitor, partial curve].

Cc1ccc(-n2c(=S)[nH]c3c(oc4ccccc43)c2=O)cc1C was tested. Which Potency did it give?
The Potency was inconclusive [activator, partial curve].

Which “activity change, negative = inhibition” value does the source give for COc1ccc(C2/C(=C(/O)c3ccccc3)C(=O)C(=O)N2CO)cc1 (stereo unspecified) here?
Its value is inactive: -4.53% [at 46.1 µM].

CCc1nc(SCc2nc3ccccc3[nH]2)c2oc3ccccc3c2n1 was tested. Which Potency did it give?
The Potency was inconclusive [inhibitor, partial curve, poor fit].

Which Potency does the source give for Cc1cc(C(=O)CSc2ccc(Cl)cc2)cc(C)c1OC(=S)N(C)C here?
The Potency was inconclusive [inhibitor, single point].

How did the Potency turn out when O=C(N/N=C/C(Br)=C\c1ccccc1)c1n[nH]c2c1CCC2 was run?
The Potency was inconclusive [activator, full curve].

Which Potency does the source give for Cc1ccccc1-n1c(C)cc(/C=N/NC(=O)c2ccncc2)c1C here?
The Potency was inconclusive [activator, partial curve, poor fit].

NC(=O)C1CCN(c2nc(C3CC3)nc3c2nnn3Cc2ccccc2Cl)CC1 was tested. Which Potency did it give?
The Potency was inconclusive [inhibitor, full curve, poor fit].

With CCOC(=O)c1sc(=NC(=O)c2ccc(C)cc2)n(C)c1C as the compound, how does the Potency read?
The Potency was inconclusive [inhibitor, single point].

Which “activity change, negative = inhibition” value does the source give for CS(=O)(=O)Nc1ccc(C(=O)Nc2ccc3c(c2)OCO3)cc1 here?
The value was inactive: -3.12%.

For CCc1ccc(OCC(=O)NC(NC(=S)Nc2ccccc2)C(Cl)(Cl)Cl)cc1 (stereo unspecified), which Potency is on record?
Its Potency is inconclusive [inhibitor, single point].

How did the Potency turn out when CCOC(=O)N1CCN(c2ccc(C(=O)c3ccccc3)cc2F)CC1 was run?
Its Potency is inconclusive [inhibitor, partial curve].

Which Potency does the source give for O=C(CSc1nnc(-c2ccccn2)n1Cc1ccco1)c1ccc(Cl)cc1 here?
The Potency was inconclusive [inhibitor, partial curve, poor fit].

O=C(CSc1nc2ccsc2c(=O)n1CC1CCC(C(=O)O)CC1)c1ccc(Cl)cc1 (stereo unspecified) was tested. Which “activity change, negative = inhibition” value did it give?
Its value is inactive: -49.6%.

Which “activity change, negative = inhibition” value does the source give for C=CCNC(=O)COC(=O)c1cccnc1Nc1ccccc1F here?
The value was inactive: -8.6%.

With CSc1ncc(CN2CCc3c([nH]c4ccccc34)C2c2cccc(O)c2)cn1 (stereo unspecified) as the compound, how does the “activity change, negative = inhibition” value read?
Its value is inactive: 44.3%.

How did the “activity change, negative = inhibition” value turn out when COc1cc2c(C#N)c(N3CCc4ccccc4C3)nc(N)c2c(N)n1 was run?
The value was inactive: -9.76% [at 46.1 µM].

N#Cc1nc(COc2ccccc2Cl)oc1N1CCCCCC1 was tested. Which Potency did it give?
Its Potency is inconclusive [inhibitor, single point].

CCC1=NN(C(=O)COc2ccccc2)C(O)(c2ccc(Br)cc2)C1 (stereo unspecified) was tested. Which Potency did it give?
The Potency was inconclusive [inhibitor, single point].

With COc1ccc(Cn2c(SCc3ccccc3C)nc3cc(OC)c(OC)cc3c2=N)cc1 as the compound, how does the Potency read?
The Potency was inconclusive [inhibitor, single point].

Which “activity change, negative = inhibition” value does the source give for COC(=O)c1c(NC(=O)Cn2cnc([N+](=O)[O-])n2)sc2c1CCC(C)C2 (stereo unspecified) here?
Its value is inactive: 13.5%.

Cc1cc(=O)n2[nH]c(-c3ccsc3-n3c(C)ccc3C)cc2n1 was tested. Which “activity change, negative = inhibition” value did it give?
The value was inactive: -18.3%.

O=C(NCC1CCCO1)/C(=C/c1cn(-c2ccccc2)nc1-c1cccnc1)NC(=O)c1ccccc1 (stereo unspecified) was tested. Which “activity change, negative = inhibition” value did it give?
Its value is inactive: -33.8%.

How did the Potency turn out when CC(CN1CCCCC1)OC(=O)C(C)(c1ccccc1)c1ccccc1 (stereo unspecified) was run?
Its Potency is inconclusive [inhibitor, single point].

O=c1c2c3nc4ccccc4nc3n(/N=C/c3ccco3)c2ncn1CCC1=CCCCC1 was tested. Which Potency did it give?
Its Potency is inconclusive [inhibitor, partial curve].

With N#CCC(=O)N/N=C/c1cn(Cc2ccc3ccccc3c2)c2ccccc12 as the compound, how does the Potency read?
Its Potency is inconclusive [activator, single point].

How did the Potency turn out when COC(=O)C1=C(C)NC(C)=C(C(=O)OCCN(C)Cc2ccccc2)C1c1cccc([N+](=O)[O-])c1 (stereo unspecified) was run?
Its Potency is active: 10 µM.

For O=C(NC12CC3CC(CC(C3)C1)C2)N1CCN(S(=O)(=O)c2ccc(Cl)cc2)CC1, which Potency is on record?
The Potency was inconclusive [inhibitor, single point].

Cc1ccc(C(=O)N/N=C\c2ccc(Br)o2)o1 was tested. Which “activity change, negative = inhibition” value did it give?
The value was inactive: -2.96% [at 46.1 µM].

How did the Potency turn out when CCOC(=O)c1c(-c2ccc(C)o2)csc1NC(=O)COC(=O)c1cccs1 was run?
Its Potency is inconclusive [inhibitor, partial curve].

For O=[N+]([O-])c1cc2c(c(CSc3nnc(Nc4ccccc4)s3)c1)OCOC2, which “activity change, negative = inhibition” value is on record?
Its value is inactive: -16.3% [at 46.1 µM].

For Cc1sc(NC(=O)c2ccco2)c(C(c2cccnc2)N2CCC(C)CC2)c1C (stereo unspecified), which Potency is on record?
Its Potency is active: 12.6 µM.

Which Potency does the source give for COc1ccc2c(c1)C(=NN)c1cc(OC)ccc1-2 here?
The Potency was inconclusive [inhibitor, full curve, poor fit].

O=C(CCl)N(c1ccccc1)c1ccccc1 was tested. Which Potency did it give?
The Potency was inconclusive [activator, single point].

How did the “activity change, negative = inhibition” value turn out when CS(=O)(=O)N1CCN(c2ccc([N+](=O)[O-])c(NCc3cccnc3)c2)CC1 was run?
Its value is inactive: -12.4%.

Which Potency does the source give for Cc1ccc(-c2nc(Nc3ccc(N4CCOCC4)cc3)c3ccccc3n2)cc1 here?
Its Potency is active: 12.6 µM.

For O=C(NC(Nc1nc2ccc([N+](=O)[O-])cc2s1)(C(F)(F)F)C(F)(F)F)c1ccccc1Cl, which Potency is on record?
Its Potency is active: 7.94 µM.

COc1cc(C(=O)Nc2nc3ccc(C)cc3s2)ccc1OCc1c(C)noc1C was tested. Which Potency did it give?
The Potency was inconclusive [activator, single point].

How did the Potency turn out when CCOC(=O)CN1C(=O)CSc2ccccc21 was run?
The Potency was inconclusive [inhibitor, single point].

For COc1ccc(CCNc2nc3ccccc3n3nnnc23)cc1OC, which Potency is on record?
Its Potency is inconclusive [inhibitor, single point].

How did the Potency turn out when c1ccc(-c2nc(N3CCCCCC3)nc(-n3ccnc3)n2)cc1 was run?
Its Potency is inconclusive [inhibitor, single point].

For CC1CCCC(C)N1C(=C(Cl)Cl)C(=C1SCCS1)[N+](=O)[O-] (stereo unspecified), which Potency is on record?
Its Potency is inconclusive [inhibitor, single point].

How did the Potency turn out when Cc1cc(C(=O)Cn2nc(C(=O)O)c3ccccc3c2=O)c(C)n1CCc1ccc(F)cc1 was run?
Its Potency is inconclusive [activator, single point].
